# This is one part of the list.
# Assays:
# Experiment in all cases: glycan array binding signal (z-score within array); higher = stronger binding
# Settings in all cases: glycan notation: IUPAC condensed, linker removed
# [1] = molecular target: Glc(b1-4)Glc
# Summary of the method: (§1)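 The Consortium for Functional Glycomics database supplied 3228 glycan arrays, of which those lacking an available protein sequence were dropped. The binding signal, a within-array Z-score, was averaged across arrays of the same protein sequence and across linkers. Negative scores can be read as non-binding.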
# [2] = molecular target: Glc(b1-6)Glc
# Summary of the method: as §1
# [3] = molecular target: GlcA(b1-3)Gal
# Summary of the method: as §1
# [4] = molecular target: GlcA(b1-3)GlcNAc
# Summary of the method: as §1
# [5] = molecular target: GlcA(b1-6)Gal
# Summary of the method: as §1
# [6] = molecular target: GlcA3S(b1-3)Gal(b1-4)GlcNAc(b1-2)Man
# Summary of the method: as §1
# [7] = molecular target: GlcA3S(b1-3)Gal(b1-4)GlcNAc(b1-3)Gal(b1-4)Glc
# Summary of the method: as §1
# [8] = molecular target: GlcNAc(a1-3)Gal(b1-4)GlcNAc
# Summary of the method: as §1
# [9] = molecular target: GlcNAc(a1-4)Gal(b1-3)GlcNAc
# Summary of the method: as §1
# [10] = molecular target: GlcNAc(a1-4)Gal(b1-4)GalNAc
# Summary of the method: as §1
# [11] = molecular target: GlcNAc(a1-4)Gal(b1-4)GlcNAc
# Summary of the method: as §1
# [12] = molecular target: GlcNAc(a1-4)Gal(b1-4)GlcNAc(b1-3)Gal(b1-4)Glc
# Summary of the method: as §1
# [13] = molecular target: GlcNAc(a1-4)Gal(b1-4)GlcNAc(b1-3)Gal(b1-4)GlcNAc
# Summary of the method: as §1
# [14] = molecular target: GlcNAc(a1-4)Gal(b1-4)GlcNAc(b1-3)Gal(b1-4)GlcNAc(b1-3)Gal(b1-4)GlcNAc
# Summary of the method: as §1
# [15] = molecular target: GlcNAc(a1-4)Gal(b1-4)GlcNAc(b1-3)Gal(b1-4)[Fuc(a1-3)]GlcNAc(b1-3)Gal(b1-4)[Fuc(a1-3)]GlcNAc
# Summary of the method: as §1
# [16] = molecular target: GlcNAc(a1-6)Gal(b1-4)GlcNAc
# Summary of the method: as §1
# [17] = molecular target: GlcNAc(b1-2)Gal(b1-3)GalNAc
# Summary of the method: as §1
# [18] = molecular target: GlcNAc(b1-2)Man(a1-3)[GlcNAc(b1-2)Man(a1-6)]Man(b1-4)GlcNAc(b1-4)GlcNAc
# Summary of the method: as §1
# [19] = molecular target: GlcNAc(b1-2)Man(a1-3)[GlcNAc(b1-2)Man(a1-6)]Man(b1-4)GlcNAc(b1-4)[Fuc(a1-6)]GlcNAc
# Summary of the method: as §1
# [20] = molecular target: GlcNAc(b1-2)Man(a1-3)[GlcNAc(b1-4)][GlcNAc(b1-2)Man(a1-6)]Man(b1-4)GlcNAc(b1-4)GlcNAc
# Summary of the method: as §1
# [21] = molecular target: GlcNAc(b1-2)Man(a1-3)[GlcNAc(b1-4)][GlcNAc(b1-2)Man(a1-6)]Man(b1-4)GlcNAc(b1-4)[Fuc(a1-6)]GlcNAc
# Summary of the method: as §1
# [22] = molecular target: GlcNAc(b1-2)[GlcNAc(b1-4)]Man(a1-3)[GlcNAc(b1-2)Man(a1-6)]Man(b1-4)GlcNAc(b1-4)GlcNAc
# Summary of the method: as §1
# [23] = molecular target: GlcNAc(b1-2)[GlcNAc(b1-4)]Man(a1-3)[GlcNAc(b1-4)][GlcNAc(b1-2)Man(a1-6)]Man(b1-4)GlcNAc(b1-4)GlcNAc
# Summary of the method: as §1
# [24] = molecular target: GlcNAc(b1-2)[GlcNAc(b1-4)]Man(a1-3)[GlcNAc(b1-4)][GlcNAc(b1-2)[GlcNAc(b1-6)]Man(a1-6)]Man(b1-4)GlcNAc(b1-4)GlcNAc
# Summary of the method: as §1
# [25] = molecular target: GlcNAc(b1-2)[GlcNAc(b1-4)]Man(a1-3)[GlcNAc(b1-4)][GlcNAc(b1-2)[GlcNAc(b1-6)]Man(a1-6)]Man(b1-4)GlcNAc(b1-4)[Fuc(a1-6)]GlcNAc
# Summary of the method: as §1
# [26] = molecular target: GlcNAc(b1-2)[GlcNAc(b1-6)]Man(a1-6)[GlcNAc(b1-2)Man(a1-3)]Man(b1-4)GlcNAc(b1-4)GlcNAc
# Summary of the method: as §1
# [27] = molecular target: GlcNAc(b1-2)[GlcNAc(b1-6)]Man(a1-6)[GlcNAc(b1-2)Man(a1-3)]Man(b1-4)GlcNAc(b1-4)[Fuc(a1-6)]GlcNAc
# Summary of the method: as §1
# [28] = molecular target: GlcNAc(b1-2)[GlcNAc(b1-6)]Man(a1-6)[GlcNAc(b1-4)][GlcNAc(b1-2)Man(a1-3)]Man(b1-4)GlcNAc(b1-4)GlcNAc
# Summary of the method: as §1
# [29] = molecular target: GlcNAc(b1-3)Fuc
# Summary of the method: as §1
# [30] = molecular target: GlcNAc(b1-3)Gal
# Summary of the method: as §1
# [31] = molecular target: GlcNAc(b1-3)Gal(b1-3)GalNAc
# Summary of the method: as §1
# [32] = molecular target: GlcNAc(b1-3)Gal(b1-4)Glc
# Summary of the method: as §1
# [33] = molecular target: GlcNAc(b1-3)Gal(b1-4)GlcNAc
# Summary of the method: as §1
# [34] = molecular target: GlcNAc(b1-3)Gal(b1-4)GlcNAc(b1-2)Man(a1-3)[GlcNAc(b1-3)Gal(b1-4)GlcNAc(b1-2)Man(a1-6)]Man(b1-4)GlcNAc(b1-4)GlcNAc
# Summary of the method: as §1
# [35] = molecular target: GlcNAc(b1-3)Gal(b1-4)GlcNAc(b1-2)Man(a1-3)[GlcNAc(b1-3)Gal(b1-4)GlcNAc(b1-2)Man(a1-6)]Man(b1-4)GlcNAc(b1-4)[Fuc(a1-6)]GlcNAc
# Summary of the method: as §1
# [36] = molecular target: GlcNAc(b1-3)Gal(b1-4)GlcNAc(b1-2)[GlcNAc(b1-3)Gal(b1-4)GlcNAc(b1-6)]Man(a1-6)[GlcNAc(b1-3)Gal(b1-4)GlcNAc(b1-2)Man(a1-3)]Man(b1-4)GlcNAc(b1-4)GlcNAc
# Summary of the method: as §1
# [37] = molecular target: GlcNAc(b1-3)Gal(b1-4)GlcNAc(b1-3)Gal(b1-4)GlcNAc
# Summary of the method: as §1
# [38] = molecular target: GlcNAc(b1-3)Gal(b1-4)GlcNAc(b1-3)Gal(b1-4)GlcNAc(b1-2)Man(a1-3)[GlcNAc(b1-3)Gal(b1-4)GlcNAc(b1-3)Gal(b1-4)GlcNAc(b1-2)Man(a1-6)]Man(b1-4)GlcNAc(b1-4)GlcNAc
# Summary of the method: as §1
# [39] = molecular target: GlcNAc(b1-3)Gal(b1-4)GlcNAc(b1-3)Gal(b1-4)GlcNAc(b1-2)Man(a1-3)[GlcNAc(b1-3)Gal(b1-4)GlcNAc(b1-3)Gal(b1-4)GlcNAc(b1-2)Man(a1-6)]Man(b1-4)GlcNAc(b1-4)[Fuc(a1-6)]GlcNAc
# Summary of the method: as §1
# [40] = molecular target: GlcNAc(b1-3)Gal(b1-4)GlcNAc(b1-3)Gal(b1-4)GlcNAc(b1-2)[GlcNAc(b1-3)Gal(b1-4)GlcNAc(b1-3)Gal(b1-4)GlcNAc(b1-6)]Man(a1-6)[GlcNAc(b1-3)Gal(b1-4)GlcNAc(b1-3)Gal(b1-4)GlcNAc(b1-2)Man(a1-3)]Man(b1-4)GlcNAc(b1-4)[Fuc(a1-6)]GlcNAc
# Summary of the method: as §1
# [41] = molecular target: GlcNAc(b1-3)Gal(b1-4)GlcNAc(b1-3)Gal(b1-4)GlcNAc(b1-3)Gal(b1-4)GlcNAc(b1-2)Man(a1-3)[GlcNAc(b1-3)Gal(b1-4)GlcNAc(b1-3)Gal(b1-4)GlcNAc(b1-3)Gal(b1-4)GlcNAc(b1-2)Man(a1-6)]Man(b1-4)GlcNAc(b1-4)GlcNAc
# Summary of the method: as §1
# [42] = molecular target: GlcNAc(b1-3)Gal(b1-4)GlcNAc(b1-3)Gal(b1-4)GlcNAc(b1-3)Gal(b1-4)GlcNAc(b1-2)Man(a1-3)[GlcNAc(b1-3)Gal(b1-4)GlcNAc(b1-3)Gal(b1-4)GlcNAc(b1-3)Gal(b1-4)GlcNAc(b1-2)Man(a1-6)]Man(b1-4)GlcNAc(b1-4)[Fuc(a1-6)]GlcNAc
# Summary of the method: as §1
# [43] = molecular target: GlcNAc(b1-3)Gal(b1-4)GlcNAc(b1-3)Gal(b1-4)GlcNAc(b1-3)Gal(b1-4)GlcNAc(b1-2)[GlcNAc(b1-3)Gal(b1-4)GlcNAc(b1-3)Gal(b1-4)GlcNAc(b1-3)Gal(b1-4)GlcNAc(b1-6)]Man(a1-6)[GlcNAc(b1-3)Gal(b1-4)GlcNAc(b1-3)Gal(b1-4)GlcNAc(b1-3)Gal(b1-4)GlcNAc(b1-2)Man(a1-3)]Man(b1-4)GlcNAc(b1-4)[Fuc(a1-6)]GlcNAc
# Summary of the method: as §1
# [44] = molecular target: GlcNAc(b1-3)Gal(b1-4)GlcNAc(b1-3)Gal(b1-4)GlcNAc(b1-3)Gal(b1-4)GlcNAc(b1-3)Gal(b1-4)GlcNAc(b1-2)Man(a1-3)[GlcNAc(b1-3)Gal(b1-4)GlcNAc(b1-3)Gal(b1-4)GlcNAc(b1-3)Gal(b1-4)GlcNAc(b1-3)Gal(b1-4)GlcNAc(b1-2)Man(a1-6)]Man(b1-4)GlcNAc(b1-4)GlcNAc
# Summary of the method: as §1
# [45] = molecular target: GlcNAc(b1-3)Gal(b1-4)GlcNAc(b1-3)Gal(b1-4)GlcNAc(b1-3)Gal(b1-4)GlcNAc(b1-3)Gal(b1-4)GlcNAc(b1-2)Man(a1-3)[GlcNAc(b1-3)Gal(b1-4)GlcNAc(b1-3)Gal(b1-4)GlcNAc(b1-3)Gal(b1-4)GlcNAc(b1-3)Gal(b1-4)GlcNAc(b1-2)Man(a1-6)]Man(b1-4)GlcNAc(b1-4)[Fuc(a1-6)]GlcNAc
# Summary of the method: as §1
binder,measurement,setting,value
"CFEM-CGl (Candida glabrata), Q6FRS0 (protein) VLATPPACLLACVAQVSKQSSQCHTLNQVGCFCENENTAIKNCLDSICPNGNSDAAYTAFKNSCGDVGKAVASV",glycan array binding signal (z-score),[1],-0.222
same,glycan array binding signal (z-score),[2],-0.428
same,glycan array binding signal (z-score),[3],-0.23
same,glycan array binding signal (z-score),[4],-0.457
same,glycan array binding signal (z-score),[5],1.84
same,glycan array binding signal (z-score),[6],-0.246
same,glycan array binding signal (z-score),[7],0.183
same,glycan array binding signal (z-score),[8],-0.424
same,glycan array binding signal (z-score),[9],-0.034
same,glycan array binding signal (z-score),[10],0.045
same,glycan array binding signal (z-score),[11],-0.237
same,glycan array binding signal (z-score),[12],-0.384
same,glycan array binding signal (z-score),[13],-0.046
same,glycan array binding signal (z-score),[14],-0.334
same,glycan array binding signal (z-score),[15],0.293
same,glycan array binding signal (z-score),[16],0.265
same,glycan array binding signal (z-score),[17],-0.401
same,glycan array binding signal (z-score),[18],-0.332
same,glycan array binding signal (z-score),[19],-0.127
same,glycan array binding signal (z-score),[20],-0.378
same,glycan array binding signal (z-score),[21],-0.359
same,glycan array binding signal (z-score),[22],-0.329
same,glycan array binding signal (z-score),[23],0.203
same,glycan array binding signal (z-score),[24],-0.379
same,glycan array binding signal (z-score),[25],-0.628
same,glycan array binding signal (z-score),[26],0.136
same,glycan array binding signal (z-score),[27],-0.226
same,glycan array binding signal (z-score),[28],-0.424
same,glycan array binding signal (z-score),[29],-0.545
same,glycan array binding signal (z-score),[30],-0.244
same,glycan array binding signal (z-score),[31],-0.243
same,glycan array binding signal (z-score),[32],-0.467
same,glycan array binding signal (z-score),[33],-0.164
same,glycan array binding signal (z-score),[34],-0.076
same,glycan array binding signal (z-score),[35],-0.067
same,glycan array binding signal (z-score),[36],0.443
same,glycan array binding signal (z-score),[37],-0.321
same,glycan array binding signal (z-score),[38],3.84
same,glycan array binding signal (z-score),[39],1.29
same,glycan array binding signal (z-score),[40],0.75
same,glycan array binding signal (z-score),[41],-0.223
same,glycan array binding signal (z-score),[42],1.97
same,glycan array binding signal (z-score),[43],0.185
same,glycan array binding signal (z-score),[44],-0.264
same,glycan array binding signal (z-score),[45],-0.272
